Experimental data: article PMC4336329 (PLoS ONE, 2015)
Screen size: about 310,000 compounds; about 2,200 (0.71%) showed an effect of 50% or more. Effects have a minus sign here. The list shows a part of the results.

What follows are compounds tested against human ether-à-go-go-related gene (hERG) potassium channel (human, UniProt Q12809) (assay: primary screen, population patch clamp on CHO cells stably expressing hERG).
Chain of human ether-à-go-go-related gene (hERG) potassium channel (Q12809 whole entry, looked up): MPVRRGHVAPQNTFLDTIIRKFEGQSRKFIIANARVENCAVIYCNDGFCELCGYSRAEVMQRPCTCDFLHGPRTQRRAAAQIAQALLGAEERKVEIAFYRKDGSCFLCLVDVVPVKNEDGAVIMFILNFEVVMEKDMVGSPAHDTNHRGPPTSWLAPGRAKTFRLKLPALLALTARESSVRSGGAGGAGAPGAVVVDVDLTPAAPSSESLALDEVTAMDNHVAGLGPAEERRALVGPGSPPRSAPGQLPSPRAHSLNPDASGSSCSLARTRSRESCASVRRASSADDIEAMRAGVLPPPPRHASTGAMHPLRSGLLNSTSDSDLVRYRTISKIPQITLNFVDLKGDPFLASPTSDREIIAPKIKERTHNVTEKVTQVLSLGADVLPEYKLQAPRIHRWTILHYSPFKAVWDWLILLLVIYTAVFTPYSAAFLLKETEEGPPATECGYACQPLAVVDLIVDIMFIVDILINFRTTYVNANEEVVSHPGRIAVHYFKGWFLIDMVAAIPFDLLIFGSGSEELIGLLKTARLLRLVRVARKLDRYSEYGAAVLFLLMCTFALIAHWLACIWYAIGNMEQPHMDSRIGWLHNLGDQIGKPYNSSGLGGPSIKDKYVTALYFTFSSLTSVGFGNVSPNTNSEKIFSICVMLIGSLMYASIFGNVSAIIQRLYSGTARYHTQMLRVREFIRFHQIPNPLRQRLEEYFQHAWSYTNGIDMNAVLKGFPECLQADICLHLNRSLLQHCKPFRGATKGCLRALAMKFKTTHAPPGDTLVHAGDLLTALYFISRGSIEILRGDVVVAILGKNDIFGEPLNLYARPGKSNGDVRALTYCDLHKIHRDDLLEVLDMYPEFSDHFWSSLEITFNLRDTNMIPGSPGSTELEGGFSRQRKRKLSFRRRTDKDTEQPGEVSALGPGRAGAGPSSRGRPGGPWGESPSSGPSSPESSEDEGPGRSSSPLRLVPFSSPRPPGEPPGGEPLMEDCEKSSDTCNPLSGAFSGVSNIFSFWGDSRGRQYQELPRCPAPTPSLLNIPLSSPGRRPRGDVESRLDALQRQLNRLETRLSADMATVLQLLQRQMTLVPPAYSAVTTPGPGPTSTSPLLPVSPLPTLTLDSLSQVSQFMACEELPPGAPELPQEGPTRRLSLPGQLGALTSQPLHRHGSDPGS

| SMILES | hERG current change (%, negative = inhibition) at 1uM [%] |
| --- | --- |
| O=C(Nc1ccc(F)cc1)N(CCCN1CCOCC1)Cc1cc2cc3c(cc2[nH]c1=O)OCO3 | -16 |
| CN(C)S(=O)(=O)c1cccc(C(=O)NCCc2ccccc2)c1 | -0.187 |
| CS(=O)(=O)N(CC(=O)NC1CCCCC1)c1cccc(Cl)c1 | 11.7 |
| Cc1ccc(N(C(=O)Cc2cccs2)C(C(=O)NCC2CCCO2)c2ccncc2)cc1 (stereo not shown) | 6.88 |
| O=S(=O)(c1ccc(NC(=S)N2CCN(c3ccccc3F)CC2)cc1)N1CCOCC1 | 12.4 |
| Cc1cc(N)n(-c2ccc(S(=O)(=O)N3CCCC3)cc2[N+](=O)[O-])n1 | 8.72 |
| CC(Oc1ccccc1)C(=O)Nc1ccc(C(N)=O)cc1 (stereo not shown) | -15.4 |
| Nc1ccc2c(c1)CC(=O)c1ccccc1S2 | 13.8 |
| Cc1cnc(NC(=O)c2ccc(F)c(S(=O)(=O)N3CCOCC3)c2)s1 | 5.65 |
| Cc1cc(C(F)(F)F)nn1CC(=O)N(C)C1CCCCC1 | 15.5 |
| Cc1ccc(S(=O)(=O)Nc2ccccc2F)cc1C(=O)NCc1ccco1 | 9.28 |
| CN(C)c1nc(Cl)nc(N(C#N)CCOc2ccccc2)n1 | 11.1 |
| Cc1ccc(S(=O)(=O)C2(C(=O)NC3CCCC3)CC2)cc1 | -4.82 |
| COc1cc2cc(CCCOC(=O)c3ccc(C#N)cc3)oc(=O)c2cc1OC | 0.229 |
| COc1ccc(-c2nc(C)ncc2N=Nc2ccccc2)cc1 | 7.74 |
| Cc1cccn2c(=O)c(C=O)c(Nc3ccccc3)nc12 | -1.11 |
| CCOC(=O)c1ccc(S(=O)(=O)Nc2ccc(N3CCOCC3)cc2)cc1 | 14.7 |
| COc1ccc(C(=O)COc2ccc3c(C)cc(=O)oc3c2)cc1 | 15.3 |
| CCCn1c(SCc2cc(=O)oc3ccc4ccccc4c23)n[nH]c1=O | 6.93 |
| COc1ccc(C(=O)OCCOc2cccc(Cl)c2)cc1S(=O)(=O)N1CCOCC1 | 8.11 |
| O=C(CN1CCCCCC1)Nc1ccccc1Cl | 11 |
| COCCn1cc(C(=O)NCc2ccco2)c2c3ccccc3n(C)c2c1=O | 5.73 |

| SMILES | hERG current change (%, negative = inhibition) at 1uM [%] |
| --- | --- |
| Br.NS(=O)(=O)c1ccc(Nc2nc(-c3ccccc3)cs2)cc1 | -5.85 |
| Cc1c(NC(=O)c2ccc(Cl)c(S(=O)(=O)N3CCCCC3)c2)c(=O)n(-c2ccccc2)n1C | 6.7 |
| O=C(CN1C(=O)NC2(CCCC2)C1=O)OCCOc1ccc(F)cc1 | -0.824 |
| CCOC(=O)c1oc2ccccc2c1NC(=O)CN1CCOCC1 | 6.9 |
| Cc1oc(-c2ccccc2)cc1C(=O)NC(Cc1c[nH]c2ccccc12)C(=O)O (stereo not shown) | 6.75 |
| Cc1ccc(NS(=O)(=O)c2ccc3c(c2)C(=O)c2ccccc2C3=O)c(C)c1 | 12.8 |
| Cc1cc(=O)n(CC(=O)Nc2cc(Cl)ccc2C)c(C(C)C)n1 | 14.6 |
| O=C(c1ccco1)N1CCN(Cc2nc3ccccc3c(=O)n2-c2ccc(F)cc2)CC1 | 2.78 |
| COc1ccc(Nc2nc(NN)nc(C)c2[N+](=O)[O-])cc1 | 13.2 |
| COc1ccc(S(=O)(=O)N2CCC(N3CCN(c4ccccc4OC)CC3)CC2)cc1 | -11.6 |
| CCCSc1nc(SCC(=O)NCc2ccccc2)c2c3c(sc2n1)COC(C)(CC)C3 (stereo not shown) | 7.78 |
| COc1ccc(COCC(O)CN(Cc2ccccc2)C(C)C)cc1OC (stereo not shown) | 13.8 |
| CN(C)c1ccc(C=C2C(=O)OC(C)(C)OC2=O)cc1 | 5.16 |
| Cn1c(=O)[nH]c(=O)c2c1nc(N1CCNCC1)n2CCOc1ccccc1 | 3.48 |
| CCOc1ccccc1/C=C/C(=O)NCC(=O)N1CCC(N(C)C2CCCCC2C)CC1 (stereo not shown) | -28.3 |
| CS(=O)(=O)N1CCc2cc(C(=O)N3CCN(c4cccc(Cl)c4)CC3)ccc21 | 15.3 |
| Cc1nn(-c2ccccc2)c(C)c1/C=N/n1c(-c2ccc(Cl)cc2)n[nH]c1=S | 0.377 |
| CCn1c(SCC(=O)Nc2nonc2C)nnc1-c1ccoc1C | 7.63 |
| COC(=O)Cc1c(O)ccn(Cc2ccccc2OC)c1=O | 10.5 |
| CCOc1ccc(C2CC(c3ccc(OC)c(OC)c3)n3nc(N)nc3N2)cc1 (stereo not shown) | -0.285 |
| CCOC(=O)Cc1nnn(CC(=O)OCC)n1 | 5.32 |
| CC(C)(C)C(=O)N1N=C(c2cccc(NS(C)(=O)=O)c2)CC1c1cccs1 (stereo not shown) | 7.27 |

| SMILES | hERG current change (%, negative = inhibition) at 1uM [%] |
| --- | --- |
| O=S(=O)(Nc1ccc(S(=O)(=O)Nc2ncccn2)cc1)c1ccc(Cl)cc1 | 9.27 |
| CCOC(=O)CC(NS(=O)(=O)c1ccc2[nH]c(=O)sc2c1)c1ccc(C)cc1.Cl (stereo not shown) | 8.03 |
| Cc1cccn2c(=O)c3cc(C(=O)NCc4ccc(F)cc4)c(=N)n(CC4CCCO4)c3nc12 (stereo not shown) | -81.8 |
| COc1cc2c(cc1OC)C(c1ccccc1C(F)(F)F)CC(=O)N2 (stereo not shown) | 3.75 |
| CCOc1ccccc1N1CC(C(=O)Nc2c(C)n(C)n(-c3ccccc3)c2=O)CC1=O (stereo not shown) | 16.1 |
| CCOC(=O)C1=C(COC(=O)CCc2ccccc2)NC(=O)NC1C (stereo not shown) | -4.01 |
| COC(C/C=C\[C@H](O)[C@H](C)OCc1ccccc1)OC | -3.51 |
| CCS(=O)(=O)Nc1cccc(-c2cn3c(n2)SCC3)c1 | 26.1 |
| Cc1ccccc1NS(=O)(=O)c1ccc(N2CCCC2=O)cc1 | 8.45 |
| COCCCNc1nc2c(c(=O)n(Cc3ccc(OC)cc3)c(=O)n2C)n1C | 14.3 |
| Cc1c(C)c(C)c(C(=O)c2ccc(NC(=O)c3ccccc3C(=O)O)cc2)c(C)c1C | 8.53 |
| O=C(COC(=O)c1ccc(F)c(S(=O)(=O)N2CCOCC2)c1)c1ccc(Cl)cc1 | 0.724 |
| COc1cc2nc(C(C)(C)C)oc(=O)c2cc1OC | 6.72 |
| O=C(c1ccc(OC2CCN(CCCc3ccccc3)CC2)cc1)N1CCCC1 | -55.2 |
| O=C(CCSc1ccccc1)NCCN1CCOCC1 | -0.237 |
| CC(C)NC(=O)CN(CCc1ccccc1)S(C)(=O)=O | 9.06 |
| O=C(O)CSc1cc(C(F)(F)F)nc(-c2ccccn2)n1 | 0.604 |
| Clc1ccccc1-c1ncc(-c2ccccc2)o1 | 11.1 |
| COc1ccccc1N1CCN(Cc2c(F)cccc2Cl)CC1 | 15.5 |
| CC1CCc2c(C(=O)NCc3cccnc3)csc2C1 (stereo not shown) | -1.14 |
| CCOC(=O)C(Cc1ccccc1)NC(=O)CCc1nnc2ccc(N3CCOCC3)nn12 (stereo not shown) | 14.1 |
| N#Cc1cccc(NS(=O)(=O)c2ccc(S(=O)(=O)N3CCOCC3)cc2)c1 | 6.83 |

| SMILES | hERG current change (%, negative = inhibition) at 1uM [%] |
| --- | --- |
| CCCCCC/C=N/Nc1nnc(Cc2ccccc2)c(=O)[nH]1 | 6.27 |
| Cc1cc(OCC(=O)N(C)C2CCCCC2)ccc1Cl | 14.8 |
| CCOc1ccc(CCNC(=O)C2CCC(=O)N2CCc2ccccc2)cc1OCC (stereo not shown) | 5.12 |
| COc1cc(OC)c(OC)cc1/C=N/n1c(C)nnc1C | 4.32 |
| Cn1ccnc1SCC(=O)c1cccc(Br)c1 | 12 |
| COc1ccc(C(=O)N=C2SC3CS(=O)(=O)CC3N2Cc2ccc(F)cc2)cc1 (stereo not shown) | 10.7 |
| CC1=NN(C(N)=S)C(=O)C1N=Nc1cccc(Cl)c1C (stereo not shown) | 15.2 |
| CC(C)CNc1nnnc2c1sc1nc(N3CCOCC3)c3c(c12)CCCC3 | 12.8 |
| COc1cc(NC(=O)c2ccccc2Cl)c(OC)cc1NC(=O)CN1CCOCC1 | 7.62 |
| CCN(CC)/C(=N\S(=O)(=O)c1ccccc1C)c1ccccc1 | -5.09 |
| CC(C)(C)SCCNS(=O)(=O)c1ccc(Cl)cc1 | 14.3 |
| CCOc1cc(/C=N/NC(=O)c2cc(-c3ccccc3)nc3ccccc23)ccc1O | 9.2 |
| Cc1ccnn1CC(=O)N/N=C/c1cn[nH]c1-c1ccccc1 | 13.5 |
| CC(=O)NC1C(Oc2ccc(C)cc2)OC2COC(c3ccco3)OC2C1O (stereo not shown) | 11 |
| CCN(Cc1ccccc1)C(=O)CSc1nc(C)cc2c1C(=O)OC2 | -3.89 |
| COc1ccc(NC(=O)c2nc[nH]c2C(=O)N[C@@H](CC(C)C)C(=O)OC(C)(C)C)cc1 | 16.4 |
| COc1ccc(C2=NNC(c3ccco3)=Nc3ccc(F)cc32)cc1 | 1.37 |
| CCCCCC[n+]1c(-c2ccc(Cl)cc2Cl)csc1Nc1ccccc1.[Cl-] | 8.29 |
| CCC(Sc1nc(=O)cc(N)n1CCc1ccccc1)C(=O)Nc1cc(C)on1 (stereo not shown) | 0.583 |
| CCc1c(C)nc(SCCOc2ccc(OC(C)C)cc2)[nH]c1=O | 19.4 |
| CC1(C)CC(=O)C2=C(C1)NC1=C(C(=O)c3ccccc31)C2c1cccnc1 (stereo not shown) | 12.1 |
| COc1ccc(-n2c(O)c(/C=N/NS(=O)(=O)c3cc(C)ccc3C)c3ccccc3c2=O)cc1OC | 15.5 |
